The supplement of paper PMC12632987
The full ranking holds about 4,500 sequences; the median of “median log2 fold change of GCK-ALFA target abundance (FLAG IP / Myc IP barcode read proportion)” is about 0.078, and the lowest 2% start at about -0.6. The list shows a part of the results.

B1: GBRAP_160_4802 (protein)
chain: SERVEKVVEIFREELEEALEMARGETNEERVNIFDVELGAAIMEAIELGLLNDEEEEVAAEVRDRLVARIRANPDLTEEELRALAEEAVEELRERLLELE
B2: GBRAP_11_2637 (protein)
chain: KKEKLKKAAETAKKAIEAVKKLIEEGTDDEELQKEIKKLLEELAKLVKEVGDEALKRDVEIAKELWEEAQKDKENAVFYLNLLRAQLEIIRAELEERIEE
B3: GBRAP_184_5241 (protein)
chain: KVVDREVVAKTPEEAKEKLEKVREEARKSGAKVDLFVTLENATPELVKTVFELIKELKEEGLLNFVEVEVESFADEETKELAFDLAHEVGVDALAYNDEG
B4: GBRAP_160_4684 (protein)
chain: SEKVEKFKKFLEEEFAEVVELFDEVSREELAAFTRVAFGQIILEAEELGLLTDKLAEVIDEEEDAIVTAILTRPDLTREEFAAMLEEAAKKIIEELEKES
B5: GBRAP_53_6419 (protein)
chain: AAAKKAALKAEILALAKAAGAADPDETLALVAEIGAKLKELKAAGASDEEITALAKEVAKALKAAGAPDRALVALADILAALGLEDATAEVVELIVEDLE
B6: GBRAP_160_4438 (protein)
chain: SEKVEKAKKEIKEIFEETLEMMKGETPEERIVFVRVAEGEVLLLLEELGLLTDELDEVIDEEFEKIIETIKKNPNITEEELEKLLKEAEEKIIEKLEKLF
B7: GBRAP_78_6591 (protein)
chain: EIDEAIDELLKATNEAMKLLAKNKSELALDILGELIDESTEIWEAREEENDKEKILKEAKALAETLKKALEHEDKFSEETVKAIKEALKAAEKLIKLLEK
B8: GBRAP_160_4870 (protein)
chain: SEKIKELKKEVEEEAEFVIELAPELSAEQVATLFEGEFGSVIIEAAESEAVSDEALDKMVEIVDEAVAKLLANKNASVEEHKKIIEEAREKIIKILEEEE
B9: GBRAP_52_6134 (protein)
chain: MKEELRKQAREILELVKAGKLAEAKALAEKLVAELNDEELRLFAEEFAEVVRELPAEDLDAAAEALDILVDAMEAAGVDESIISLFIGKGTRAMYEVEQR
B10: GBRAP_11_2730 (protein)
chain: KKEELEEIKKLAEEAAKLVDELIEEGTDNEELIAKLEKKLKELAEKVKKYADEDLKKLVEIAQEEFQLALENPETAVEHLQNALAALRVLAGQTLLEIEE
B11: GBRAP_184_5043 (protein)
chain: KIFEETIKAENLEELKAKLDKLKEKVKNFKGELIVLVESPKFTKEMVETLISRLQEMLDEGYVSSVTLGLDGEMSEEVIDLAIELADKAGIKLTIALEEE
B12: GBRAP_55_6437 (protein)
chain: SEDEELDKEASESLTEVAAGLVEDPEAMERVIRKMVESLAGKPIYITKEAVDLLETDEEKERFLKTLVRAAKEAKNVTGIKLIDTSEEVEKMLEKAKKEV
B13: GBRAP_52_6215 (protein)
chain: MEEEIEKMAEKIAEALIAGDEEKLEKLVKEAIEKFSLEELEEIAARTGAILARRLAGDEERIVALIDKFEEAALKAGLSEDDALLLEGAAEAAAIKELLA
B14: GBRAP_74_6509 (protein)
chain: MEEKLAALKAAAAAKDAKEVAELLKEIVEEGSLETIEEAAKIAVAFVKENLDKLSKEELEALADALAALADKLMELGGDSETVLAVVNAAIALEKKLAAL
B15: GBRAP_128_3443 (protein)
chain: SQEELLEKAKELLDKIVESDVEEAKKLTKELAEVLKELDEEGRDEVLEYFEEKAKELSEEKLEAVADALREEIPKADPLTANYLAGMIVIAGERILELEE
B16: GBRAP_78_6688 (protein)
chain: EIEELLDKAIEHLGKAAKILAKMNTEEALDLLGKVIDAASLIEEALLGETKLETLEEARKLLEEVIKELEKIDTEEAKEAKKHVEEALKHVEEAIKLLKK
B17: GBRAP_184_5176 (protein)
chain: MIEEYELKIENVEEAKKKIKEIGEEVKGKKAELYVLIDVPEVTKEIAKAIMDGLKEIKDNGNVTKITVDLNGKMTEEVLDYAIKLAKEAGVNLVVALDEE
B18: GBRAP_52_6361 (protein)
chain: ALEEALALLREALEAVKAGKEEEARAILKELVERFSDEVILAAARRLAEELKDKDAESAEAFLELALMLEDELLEAGRDEVVADEIAAIAARTYMEVLAK
B19: GBRAP_52_6356 (protein)
chain: MKEELEKKAEELVKAVLEGKEEEARKLAKEIVEELSDEELDELFKVLAERARESDPETAEAIVEAAIILSDELIKAGRDEYEASLREADVAGAAYENLQA
B20: GBRAP_74_6530 (protein)
chain: DEEVLKKIEEAAEAGDLEKAIEIAEEAVDKLSPENLVKALLIVLELFEERREEATPEELDRVVDLIVRVESKVDDLDFPDELLELIARALALAVEREEAE
B21: GBRAP_160_4601 (protein)
chain: MEEVEKLLKEIREIIEEAIKLIEGESPENRLVIIEVAMGEILLEIDSSEIVSEELEEFADEELDAVVDWVRANPEASVEEIRKLLEEAFEKIEKALKEEH
B22: GBRAP_52_5852 (protein)
chain: MREEARKIAQELVKLQLAGDEEGLEKKLKEIVETKSEEEILLILDELAELAKTASPEEVDAIVDVAIKLSDIAEEAGFDEWELSAAEARVGKAAYENLQK
B23: GBRAP_160_4782 (protein)
chain: AEKKAKLKAAIDAAAAEIREAIDTESPAQVLTVARGEMGDILQEAEELGFDNDELLDALAAAGDELVAALAAAADASPAEKRAVVDAARAKMIATLDKLT
B24: GBRAP_122_2954 (protein)
chain: NSEERVERLVEETVERAKKENPAEVFFEAIKRAAEELSPEDVIRFAELLAERAKELGWEAEAAKAFAAAAVWLEKEKPELAEAADHLADLADELFDRLME
B25: GBRAP_52_5962 (protein)
chain: MREEMEALLDEALALMRAGDREGARALLREIARTLNDEELRLLADVLVERIEASDLETAELLLEIAILLADVLEEEGRDPRIASDLLGRAAAAAYKLEQK
B26: GBRAP_128_3390 (protein)
chain: SQEEKVEEAKELIDKIIEADVEEAKKLAEEFMKLFGELSKEDQEIVAEYFESKLPEMTAEKLEVVADVIREKRPELDPYGQELAAGMEVEALNEAEEKEE
B27: GBRAP_80_6864 (protein)
chain: MEEAIEEALKLAEEVSEEIAELFRELIEELKKLGVSEEDIKRIAEIIKDIIELDPELALEALKEMVEEAKKYLKEGKGEEALVVVEGIAGEALMEAEEKQ
B28: GBRAP_11_2928 (protein)
chain: KKEEIKRIAELAEKLAEAIDRLIAEGTDDEELRAEATRLLEELTKLVEKYGDEADRKDAEIMRELWEKALADPENAEQYLTELRNEALVLSGNYLLEYDE
B29: GBRAP_14_3778 (protein)
chain: MEEIERILREEAAEIIELLSELAPAKAAEFEAAVTEVTEETIARIKETGDVHAAVDEGEERLVARIDEILADEPPEVRARALAIVRVEMGNALLEIDELL

Target: GABARAP, O95166
Sequence (O95166 whole entry, the tested form may be a part): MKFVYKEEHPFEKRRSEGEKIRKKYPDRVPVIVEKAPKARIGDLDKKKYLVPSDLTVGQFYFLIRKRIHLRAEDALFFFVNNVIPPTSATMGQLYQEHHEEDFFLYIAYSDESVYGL
Assay: median log2 fold change of GCK-ALFA target abundance (FLAG IP / Myc IP barcode read proportion) (log2 ratio); each designed protein is fused to an ALFA-tag nanobody in HEK293 cells to bring the named protein to FLAG-tagged glucokinase (GCK); Myc marks an untargeted standard; higher = target protein stabilised (more abundant)
Conditions: target protein: 3xFLAG-MCP-GCK-ALFA reporter; HEK293 landing pad (RPLP)
How it was run: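 HEK293 landing-pad cells received a recombined binder library fused to the ALFA nanobody and were induced with 2 μg mL^−1 doxycycline, then transfected with a plasmid encoding a FLAG-tagged target and a Myc-tagged standard. Lysates were collected after 48 h for anti-FLAG and anti-Myc immunoprecipitation, and the circular RNA barcodes were reverse transcribed, amplified and sequenced. Target abundance for each binder is the median log2 ratio of FLAG to Myc barcode read proportions. Barcodes had to reach a proportion of at least 10^−7 in both replicates, each binder needed at least 3 barcodes per replicate, a pseudocount of 10^−6 was applied, and the two replicates were pooled.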

| Binder | median log2 fold change |
| --- | --- |
| B1 | 0.0108 |
| B2 | 0.0575 |
| B3 | 0.0802 |
| B4 | -0.549 |
| B5 | 0.135 |
| B6 | 0.03 |
| B7 | -0.0224 |
| B8 | -0.41 |
| B9 | 0.0637 |
| B10 | 0.181 |
| B11 | 0.279 |
| B12 | 0.125 |
| B13 | 0.103 |
| B14 | 0.126 |
| B15 | -0.0144 |
| B16 | -0.163 |
| B17 | -0.0925 |
| B18 | -0.179 |
| B19 | 0.0654 |
| B20 | -0.0476 |
| B21 | -0.451 |
| B22 | -0.359 |
| B23 | 0.219 |
| B24 | 0.157 |
| B25 | -0.585 |
| B26 | 0.262 |
| B27 | 0.127 |
| B28 | 0.126 |
| B29 | 0.104 |
